# Screen size: about 150,000 compounds; about 540 (0.36%) showed an effect of 50% or more. The list shows a part of the results.
# Tested on: Plasmodium falciparum
# Test: Primary screen in NF54 nanoGlo assay, in single point, at 2uM, 72h; a lower Z score goes with more inhibition
# Assay type: functional, Erythrocyte
# Conditions: timepoint 72 hour
SMILES,% Inhibition,Z score
CC(C)[C@@H]1NC(=O)[C@@H]2C[C@@H](CN2C(=O)c2cccc(C(F)(F)F)c2)n2cc(nn2)CNC(=O)[C@@H](Cc2ccccc2)NC1=O,-1%,0.17
Cc1ccccc1C(=O)N(CCN1CCOCC1)Cc1csc(COc2cccc(C)c2C)n1,0%,0.02
O=C(Nc1nncs1)c1ccc2[nH]c3c(c2c1)CCCC3,-1%,0.15
CCN1C(=O)c2c(C(=O)NC3CC3)ncn2C[C@@]1(C)C(=O)NCc1ccc(F)cc1,-12%,2.22
COc1ccc(CN2CC[C@@H](CO)[C@@H](O)C2)cc1Cn1cccn1,-4%,0.49
O=C(Cn1ncc2ccc(Cl)cc21)NC1CCCCCC1,-7%,1
O=C(O)C1(Oc2ccc(Cl)cc2)CCN(Cc2ccc(CO)o2)CC1,-5%,1
CN(Cc1cnccn1)Cc1cc(Br)cc2cccnc12,-9%,0.83
Cc1ncn(CCNc2cccc(C(=O)N(C)C)n2)c1C,-9%,1.27
COC(=O)Cc1cccc2cnccc12,-5%,0.7
C[C@H](NC(=O)Cc1cccc(O)c1)c1ccc(-n2ccnn2)cc1,-3%,0.55
COc1ccc(-c2nc3cnccn3c2Nc2ccc3c(c2)OCCO3)cc1OC,-3%,0.49
Cc1cc2c(cc1-c1cn(CCN(C)S(C)(=O)=O)nn1)OCO2,-9%,0.83
CCN(CC)C(=O)c1cn([C@H]2CC[C@@H](NC(=O)c3ccc(NC(C)=O)cc3)CC2)nn1,13%,-1.62
O=C(Cc1cnn(-c2ccccc2)c1)NC[C@H]1CCCO1,-3%,0.48
COc1ncc(CN2CCCC[C@@H]2CCc2cccc(O)c2)cn1,-6%,0.94
O=C(Cc1cscn1)N1CC2(CCOCC2)CC[C@@H]1CO,-4%,0.49
CC1COC(c2ccccc2)C(C)N1Cc1cccc(O)c1 (stereo unspecified),-3%,0.52
CCCc1cnc(C)nc1-c1ccc(C(=O)N2CCc3n[nH]cc3C2)cc1,-5%,1.01
CCCOCC(=O)N1CC[C@]2(OC)CC[C@@H](Oc3ccccn3)C[C@H]12,-16%,1.58
CCCc1cc(C(=O)Nc2ccc3c(c2)OCO3)no1,-1%,0.22

SMILES,% Inhibition,Z score
Cc1ccc([C@H](C(=O)Nc2ccc(C(C)C)cc2)N(Cc2ccco2)C(=O)Cc2cc3ccccc3[nH]2)cc1,-16%,3.07
N#CCC(=O)N(CC(F)(F)F)C1CC1,-19%,2.89
CCOC(=O)N1CCN(C(=O)c2ccc(=O)n(C)n2)CC1,-2%,0.26
CCCCOCCN(Cc1nnsc1Cl)c1cccc(Br)c1,-12%,1.48
O=C(c1ccccc1)N1CCC(c2nc(-c3ccncc3)cs2)CC1,-2%,0.2
CC(CC(=O)O)CC(=O)N1CC(C)CC(C)C1 (stereo unspecified),38%,-5.45
O=C(NCCc1nccs1)[C@H](O)c1cccc(F)c1,9%,-1.28
CCC#CCN1CCC[C@H](CNC(=O)c2ccon2)C1,-4%,0.89
CCCN(C)C(=O)C(=O)Nc1cccc(C#Cc2ccccn2)c1,-12%,2.27
Cn1c(C#N)ccc1C(=O)N1CCOCC12CCCC2,-11%,2.09
CN(C)c1ccc(CN2CCCC[C@@H]2CCN2CCCC2=O)cn1,-11%,1.36
Cc1cc(=O)n(Cc2ccccc2F)c2cc(OCC(=O)NCc3ccccn3)ccc12,5%,-0.64
COc1nc2c(cc1CNC(=O)CNC(N)=O)C(=O)N(C1CCCC1)C2,4%,-0.63
O=C1N(CC2CCCCC2)CCC[C@@]1(O)CN1CCC(CO)CC1,-5%,0.64
C(CN1CCOCC1C1CC1)CN1CCOCC1C1CC1 (stereo unspecified),-1%,0.16
CC(C)(C)NC(=O)CN1CCC(CNC(=O)c2nccnc2N)CC1,2%,-0.27
O=C(NCc1ccc(F)cc1)N1CCC[C@@H]1CN1CCCC1,-10%,1.91
COCCn1cnnc1[C@H](C)Nc1nc(C)nc2ccsc12,-11%,2.11
CCN(CC)CCCC(C)NC(=O)CC(c1ccc(OCc2ccccc2)c(OC)c1)c1cn(Cc2ccccc2)c2ccccc12 (stereo unspecified),5%,-0.61
CC1CN(C(=O)CCn2nnc3ccccc3c2=O)CC1N(C)C (stereo unspecified),-1%,0.1
CCCCNC(=O)CN(C)C(=O)c1c(C)[nH]c(C)cc1=O,-10%,2.03

SMILES,% Inhibition,Z score
Cc1noc(CN2CCC(N3CCN(c4cc(C(F)(F)F)ccn4)CC3)CC2)n1,-2%,0.22
c1ccc(C2CN(c3nc(N4CCOC(c5ccccc5)C4)c4ccccc4n3)CCO2)cc1 (stereo unspecified),-11%,2.03
CC(NC(=O)N1CCCC(CO)C1)c1cnn(Cc2ccccc2)c1 (stereo unspecified),-16%,1.46
O=C(Cn1nc2c(Oc3ccccc3)nc3ccccc3n2c1=O)N1CCN(c2ccc(F)cc2)CC1,-6%,0.79
CC(C)=CCN1C(=O)C2(CCN(C(=O)c3cccnc3)CC2)Nc2ccccc21,-14%,1.94
Cc1noc(-c2cccnc2N2CCN(C(c3ccccc3)c3ccccc3)CC2)n1,14%,-1.61
Cc1cc(-c2cc(S(=O)(=O)N3CCN(C(C)C)CC3)c(C)s2)[nH]n1,-8%,1.79
O=C(c1cccnn1)N1CC[C@H]2[C@H](CCC(=O)N2CCc2cccs2)C1,5%,-0.58
O=C(c1coc(-c2ccccc2)n1)N1CCCc2cccc(OC(F)F)c21,1%,-0.12
O=C1NCCC[C@@H]1Nc1nc(-c2ccncc2)nc2c1CCC2,7%,-0.89
Cc1cccnc1CN1CCC(Oc2cncc(Cl)c2)CC1,1%,-0.12
COc1ccc(CN(C(=O)c2ccccc2C(F)(F)F)C2CCCC2)cc1OC(C)C,-9%,1.18
COc1ccc(S(=O)(=O)CCNC(=O)Cn2cc(OC)c(=O)cc2C)cc1,-16%,2.66
Cn1c(-c2nc([C@H]3CCS(=O)(=O)C3)no2)cc2ccccc2c1=O,6%,-0.77
CC1CCN(Cc2nnnn2CC(=O)NCc2cnc(-c3ccccc3)s2)CC1,-16%,1.49
Cc1nn(CC(=O)NCCCN(C)Cc2ccccc2)c(=O)c2c(C)n(-c3ccccc3)nc12,-3%,0.46
CC(=O)N1CCN(Cc2ccccc2NC(=O)c2oc(CC3CC3)nc2C)CC1,-13%,1.66
OC[C@]1(O)CCCN(Cc2ccc(-c3cccc(Cl)c3Cl)o2)CC1,1%,-0.25
O=C(Nc1ccccc1)Nc1ccc2nc3n(c(=O)c2c1)CCCC3,-5%,0.59
Cc1ncc(CN(C)C(=O)c2ccc3c(c2)OCO3)s1,6%,-1.1
Cc1cc2c(cc1C)[C@H](C(=O)NC1(C(=O)O)CCC1)CO2,2%,-0.35

SMILES,% Inhibition,Z score
CCc1ccc(C(NC(=O)C2CCCN2C(C)=O)C(C)(C)C)o1 (stereo unspecified),-10%,1.39
Nc1nc(CCCNC2CCN(c3nc4ccccc4o3)CC2)cs1,12%,-2.48
O=C(NC[C@@H](c1ccco1)N1CCCC1)Nc1ccc(Cl)cc1,25%,-2.96
Cc1ccc(CC(=O)N[C@@H](CC2CC2)C(=O)O)s1,1%,-0.15
Cn1c(=O)c(-c2nc(-c3cccc(F)c3)no2)c(O)c2ccc(F)cc21,-12%,1.52
Cc1ccc(S(=O)(=O)N[C@@H](CC(=O)NCCN2CCOCC2)c2ccco2)cc1,17%,-1.99
CCN(CC)c1ccc(C(=O)OCC(=O)N2CCCCCC2)cc1,-5%,0.8
Cn1cccc1C(=O)N1CC[C@H](Nc2cccnc2)C1,2%,-0.28
Cc1ccc(CNC(=O)Nc2c(C)noc2C)cc1,-1%,0.15
Cc1cc(=O)[nH]c(CCNC2CCN(c3nc4ccccc4o3)CC2)n1,-3%,0.57
COCCc1nc(Cn2cnc(-c3ccccc3)c2[C@H](C)c2ccccc2)no1,-7%,0.92
Cc1nc(N[C@@H](C)c2ncccc2C)cc(C2CCNCC2)n1,-5%,0.88
CCOC[C@H]1CCN(c2cc(N(C)c3ccccc3)ncn2)C1,-10%,1.97
Cc1ccc(OCc2cc(C(=O)N3CCN(C)C[C@@H]3C(C)C)no2)cc1C,-10%,1.16
CCn1ccc(NC(=O)N(C)Cc2ncc(Br)cn2)n1,1%,-0.12
CCCN1CCN(Cc2nc3nc(C)cc(N4CCOCC4)n3n2)CC1,-14%,1.82
Cc1cc(C(=O)NC[C@H](C)c2ccc(S(C)(=O)=O)cc2)cc(C)n1,-9%,1.78
O=C(NC1CCCN(c2ccc(Cl)cc2Cl)C1)N[C@H]1[C@@H]2COC[C@@H]21 (stereo partly specified),-3%,0.48
Cc1nc2ccc(-n3nc(C(C)C)nc3[C@H]3CCC(=O)N3)cc2s1,-10%,2.06
Cc1cc(=O)[nH]c(-n2ncc(C(=O)NCCc3ccc(F)cc3)c2C)n1,2%,-0.28

# Source: ChEMBL document CHEMBL4888484, “Replenishing the malaria drug discovery pipeline: Screening and hit evaluation of the MMV Hit Generation Library 1 (HGL1) against asexual blood stage Plasmodium falciparum ,using a nano luciferase reporter read-out” (2022)
